Sequences with one replicate were seen in a single cluster, so their values are uncertain.
Each sequence was assayed on ATP (assay: switch fluorescence ratio, 500 uM ATP over buffer (Cy3 cluster intensity, sum of 5 cycles each) (fold (ratio)); higher = stronger signal-on switching upon ATP binding; sequences stand for … in TCGTCGGCAGCGTCAGATGTGTATAAGAGACAGTTTTTTTTTTTTTTTTTTTTTTTTT…TC). Conditions: aptamer strand: ATP DNA aptamer (quencher-CACCTGGGGGAGTATTGCGGAGGAAGG + anchor), 100 nM annealed; ATP concentration: 500 uM; one replicate.
Method in brief: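 The fluorescence ratio divides summed target-cycle Cy3 intensity by summed buffer-cycle Cy3 intensity for each cluster and is averaged per switch-domain sequence. Cy3-labelled switching-strand clusters on a modified Illumina MiSeq flow-cell were annealed to 100 nM quencher-labelled ATP aptamer, then imaged in selection buffer and again after 15 min with 500 uM ATP at 22 °C. Five such cycles were run, with NaOH stripping and re-annealing between them, and clusters outside 100-1000 RFU were excluded.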
Sequence ATGGGAATCT has a switch fluorescence ratio of 1. In the case of ATGGGACGAC, the switch fluorescence ratio is reported as 1.05. ATGGGAGAGC gave a switch fluorescence ratio of 0.947. ATGGGATTCC showed a switch fluorescence ratio of 1.01. ATGGGCTCGC showed a switch fluorescence ratio of 0.986. ATGGGCTCTA was tested, and the switch fluorescence ratio was 0.992. In the case of ATGGGCTGAT, the switch fluorescence ratio is reported as 0.989. For ATGGGGGTCT, the switch fluorescence ratio was 0.967. Work on ATGGGTGCAG yielded a switch fluorescence ratio of 0.978. Work on ATGGTAATGC yielded a switch fluorescence ratio of 1.17. In the case of ATGGTACATT, the switch fluorescence ratio is reported as 1.03. ATGGTAGAGA was tested, and the switch fluorescence ratio was 0.994. ATGGTATTCA gave a switch fluorescence ratio of 0.999. Work on ATGGTATTGA yielded a switch fluorescence ratio of 1.02. For ATGGTGCATT, the switch fluorescence ratio was 1.06. With ATGGTGGAGC the switch fluorescence ratio was 1.02. ATGGTGGGTT was tested, and the switch fluorescence ratio was 0.982. ATGGTGTCGT was tested, and the switch fluorescence ratio was 1.01. Work on ATGGTTAAGC yielded a switch fluorescence ratio of 1.06. Work on ATGGTTCGC yielded a switch fluorescence ratio of 0.985. ATGGTTCTGA gave a switch fluorescence ratio of 0.997. With ATGGTTGGAG the switch fluorescence ratio was 0.967. ATGTAATATC was tested, and the switch fluorescence ratio was 1.07. Work on ATGTACA yielded a switch fluorescence ratio of 1. Sequence ATGTACGACG has a switch fluorescence ratio of 0.968. ATGTACGGC gave a switch fluorescence ratio of 1.08. ATGTACTTCT was tested, and the switch fluorescence ratio was 1.02. ATGTAGAGGA showed a switch fluorescence ratio of 0.987. Sequence ATGTAGAGTG has a switch fluorescence ratio of 0.969. For ATGTAGCTTC, the switch fluorescence ratio was 1.13. With ATGTAGGCAA the switch fluorescence ratio was 1.21. Sequence ATGTCAGTAA has a switch fluorescence ratio of 0.98. With ATGTCAGTCC the switch fluorescence ratio was 1.01. ATGTCATTTT showed a switch fluorescence ratio of 1.03. ATGTCCGATA showed a switch fluorescence ratio of 0.973. ATGTCGAAGC showed a switch fluorescence ratio of 0.976. For ATGTCGGACG, the switch fluorescence ratio was 0.984. ATGTCGTAGC showed a switch fluorescence ratio of 1.01. For ATGTCTATCA, the switch fluorescence ratio was 1.05. Sequence ATGTCTTCCC has a switch fluorescence ratio of 1.04. ATGTGACATG showed a switch fluorescence ratio of 1.27. ATGTGCACCT showed a switch fluorescence ratio of 1.02. Sequence ATGTGGCAAG has a switch fluorescence ratio of 1. Sequence ATGTGGGACT has a switch fluorescence ratio of 1.02. ATGTGTACCG showed a switch fluorescence ratio of 1.06. With ATGTGTAGTG the switch fluorescence ratio was 1. ATGTGTGAGT showed a switch fluorescence ratio of 0.966. Work on ATGTTATGCG yielded a switch fluorescence ratio of 0.986. ATGTTCAAA showed a switch fluorescence ratio of 0.998. Work on ATGTTCCGAC yielded a switch fluorescence ratio of 1.39. ATGTTCCTTG was tested, and the switch fluorescence ratio was 0.981. Work on ATGTTCTCTA yielded a switch fluorescence ratio of 1. In the case of ATGTTCTGTG, the switch fluorescence ratio is reported as 0.973. For ATGTTCTTTA, the switch fluorescence ratio was 1.06. Sequence ATGTTGCTAC has a switch fluorescence ratio of 1.07. ATGTTGGAAC showed a switch fluorescence ratio of 1.04. For ATGTTGGCAC, the switch fluorescence ratio was 0.989. For ATGTTGTGT, the switch fluorescence ratio was 1.04. ATGTTTCGTT showed a switch fluorescence ratio of 1.01. For ATGTTTTCGC, the switch fluorescence ratio was 0.962. ATTAAAGATA showed a switch fluorescence ratio of 1.04. ATTAAATCCT gave a switch fluorescence ratio of 1.2. ATTAAATCGC was tested, and the switch fluorescence ratio was 0.994. Sequence ATTAAGCACG has a switch fluorescence ratio of 1.11. Work on ATTAAGTCT yielded a switch fluorescence ratio of 0.954. ATTAAGTGAG was tested, and the switch fluorescence ratio was 1.03. ATTAATGC showed a switch fluorescence ratio of 0.925. ATTAATTACG was tested, and the switch fluorescence ratio was 1.05. In the case of ATTAATTGGT, the switch fluorescence ratio is reported as 0.975. ATTACAATCA was tested, and the switch fluorescence ratio was 1.03. In the case of ATTACATAGT, the switch fluorescence ratio is reported as 1.03. With ATTACCGGTA the switch fluorescence ratio was 1.01. ATTACGAATG was tested, and the switch fluorescence ratio was 0.976. ATTACGGGCG was tested, and the switch fluorescence ratio was 1.02. Sequence ATTACTGATT has a switch fluorescence ratio of 0.992. Work on ATTAGAAAGG yielded a switch fluorescence ratio of 0.996. ATTAGAACGC gave a switch fluorescence ratio of 1.08. In the case of ATTAGAACTC, the switch fluorescence ratio is reported as 0.96. Sequence ATTAGACTCT has a switch fluorescence ratio of 0.978. ATTAGATCGT was tested, and the switch fluorescence ratio was 0.989. Work on ATTAGCCTTG yielded a switch fluorescence ratio of 1.04. With ATTAGCTAGA the switch fluorescence ratio was 0.975. For ATTAGGAACC, the switch fluorescence ratio was 1.03. ATTAGGAAGC showed a switch fluorescence ratio of 1.01. ATTAGGAGCT was tested, and the switch fluorescence ratio was 0.994. In the case of ATTAGGCCGA, the switch fluorescence ratio is reported as 0.982. In the case of ATTAGGTCAA, the switch fluorescence ratio is reported as 0.983. With ATTAGTCACC the switch fluorescence ratio was 1. With ATTAGTTGAA the switch fluorescence ratio was 0.979. ATTAGTTGCC was tested, and the switch fluorescence ratio was 1.03. ATTATAAACT gave a switch fluorescence ratio of 0.998. ATTATCCAGT was tested, and the switch fluorescence ratio was 0.976. For ATTATCCATT, the switch fluorescence ratio was 0.975. For ATTATCTCTG, the switch fluorescence ratio was 0.965. Sequence ATTATGACGT has a switch fluorescence ratio of 0.978. ATTATGCCCC showed a switch fluorescence ratio of 0.991. In the case of ATTATGTTCG, the switch fluorescence ratio is reported as 0.95. With ATTATTAGA the switch fluorescence ratio was 0.977. ATTATTCTAA gave a switch fluorescence ratio of 0.993. For ATTATTTAGC, the switch fluorescence ratio was 0.997.

From the supplement of paper PMC10126150
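Note: ATP exposure 15 min at 22 °C before imaging.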
